Measured values from publication PMC11109194.
Results are given in words; binding and its absence hold for the method and conditions named. Binding seen in cells or lysates may run through a third protein. Some binding calls cover weakened binding; strength is not graded here. Tags and fused reporters may be left off the sequences shown.

What was measured:
[1] = molecular target: T1, HA-TAK1 (transforming growth factor β-activated kinase) (UniProt Q62073); assay: co-IP; supplementary panels (Fig. S7b-d, S8a, S8c-d, S9a-b) whose legends were not shown; cells and tags not stated; with or without TIGAR overexpression
T1 sequence: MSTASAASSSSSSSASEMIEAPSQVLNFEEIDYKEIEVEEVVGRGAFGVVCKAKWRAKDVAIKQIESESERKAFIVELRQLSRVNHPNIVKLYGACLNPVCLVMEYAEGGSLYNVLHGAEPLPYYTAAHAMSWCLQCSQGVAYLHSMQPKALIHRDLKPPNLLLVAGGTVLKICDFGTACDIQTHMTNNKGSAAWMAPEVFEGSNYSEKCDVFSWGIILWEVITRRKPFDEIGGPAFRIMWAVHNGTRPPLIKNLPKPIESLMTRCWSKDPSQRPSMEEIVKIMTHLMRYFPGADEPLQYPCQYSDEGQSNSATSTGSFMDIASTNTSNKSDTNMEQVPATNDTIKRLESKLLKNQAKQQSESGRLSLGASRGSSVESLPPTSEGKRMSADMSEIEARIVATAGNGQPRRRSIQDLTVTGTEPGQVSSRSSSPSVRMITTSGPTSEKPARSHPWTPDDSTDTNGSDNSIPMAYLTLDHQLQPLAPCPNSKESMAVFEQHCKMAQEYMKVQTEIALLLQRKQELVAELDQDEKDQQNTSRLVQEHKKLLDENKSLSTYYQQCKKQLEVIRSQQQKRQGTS

[2] = molecular target: T2, HA-TRAF6 (tumor necrosis factor receptor-associated factor 6) (UniProt P70196); assay: as above
T2 sequence: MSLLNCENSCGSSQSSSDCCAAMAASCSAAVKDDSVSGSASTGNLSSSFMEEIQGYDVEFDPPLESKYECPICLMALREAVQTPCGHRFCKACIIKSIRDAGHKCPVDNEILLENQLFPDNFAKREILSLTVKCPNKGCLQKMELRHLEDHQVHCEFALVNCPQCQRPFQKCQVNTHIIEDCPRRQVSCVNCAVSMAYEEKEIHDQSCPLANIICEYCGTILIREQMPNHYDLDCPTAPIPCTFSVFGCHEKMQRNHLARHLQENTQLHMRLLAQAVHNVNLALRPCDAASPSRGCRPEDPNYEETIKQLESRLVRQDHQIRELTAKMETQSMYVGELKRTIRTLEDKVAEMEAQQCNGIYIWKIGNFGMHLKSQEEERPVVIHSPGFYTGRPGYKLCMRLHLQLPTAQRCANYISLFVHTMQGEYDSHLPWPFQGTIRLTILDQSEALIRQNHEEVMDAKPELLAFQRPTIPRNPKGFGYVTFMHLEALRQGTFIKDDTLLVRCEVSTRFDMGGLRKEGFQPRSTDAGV

[3] = molecular target: T2, HA-TRAF6 (tumor necrosis factor receptor-associated factor 6); assay: co-IP; HEK293 cells co-transfected with tagged plasmids; lysate incubated with the indicated antibody overnight at 4 °C, protein A/G plus agarose beads, western blot; in some panels a third protein co-expressed, or cells incubated with 5Z-7-OX (0.1, 0.3 or 1 mM, 12 h)
[4] = molecular target: T3, TGF-β activated kinase 1 binding protein 1 (TAB1) (UniProt Q8CF89); assay: as above
T3 sequence: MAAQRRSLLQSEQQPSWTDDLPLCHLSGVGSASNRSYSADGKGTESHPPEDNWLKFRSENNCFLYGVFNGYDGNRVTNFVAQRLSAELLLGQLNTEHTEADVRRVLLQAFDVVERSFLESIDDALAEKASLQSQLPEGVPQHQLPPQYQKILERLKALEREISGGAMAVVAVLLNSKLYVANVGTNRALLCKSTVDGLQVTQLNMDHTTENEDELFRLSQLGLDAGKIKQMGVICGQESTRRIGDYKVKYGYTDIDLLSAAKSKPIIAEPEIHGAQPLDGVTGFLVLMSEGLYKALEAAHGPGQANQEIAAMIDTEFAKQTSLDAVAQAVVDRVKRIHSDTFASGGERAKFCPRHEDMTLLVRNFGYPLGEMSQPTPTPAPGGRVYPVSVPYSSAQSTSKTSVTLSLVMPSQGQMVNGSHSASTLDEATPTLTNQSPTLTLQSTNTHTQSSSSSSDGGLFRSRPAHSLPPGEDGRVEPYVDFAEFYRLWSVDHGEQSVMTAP

[5] = molecular target: T4, TGF-β activated kinase 1 binding protein 2 (TAB2) (UniProt Q99K90); assay: as above
T4 sequence: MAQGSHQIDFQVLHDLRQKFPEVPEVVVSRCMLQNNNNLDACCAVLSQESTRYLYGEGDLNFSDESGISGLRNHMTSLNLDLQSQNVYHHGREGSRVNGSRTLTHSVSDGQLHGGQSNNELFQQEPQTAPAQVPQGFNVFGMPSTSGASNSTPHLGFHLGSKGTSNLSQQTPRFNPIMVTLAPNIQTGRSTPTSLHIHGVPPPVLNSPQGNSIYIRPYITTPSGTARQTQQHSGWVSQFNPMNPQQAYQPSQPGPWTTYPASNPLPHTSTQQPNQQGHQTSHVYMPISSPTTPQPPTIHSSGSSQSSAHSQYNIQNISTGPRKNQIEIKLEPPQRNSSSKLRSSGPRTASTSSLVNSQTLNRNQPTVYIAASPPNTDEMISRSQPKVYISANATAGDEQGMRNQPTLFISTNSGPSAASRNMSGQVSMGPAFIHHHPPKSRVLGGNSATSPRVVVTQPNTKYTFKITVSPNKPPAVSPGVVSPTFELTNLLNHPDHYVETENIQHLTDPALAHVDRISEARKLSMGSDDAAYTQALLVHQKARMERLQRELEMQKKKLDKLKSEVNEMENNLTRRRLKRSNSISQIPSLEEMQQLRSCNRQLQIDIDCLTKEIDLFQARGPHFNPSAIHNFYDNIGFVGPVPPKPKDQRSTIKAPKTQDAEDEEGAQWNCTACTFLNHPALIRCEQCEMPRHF

B1: Flag-TIGAR (TP53-induced glycolysis and apoptosis regulator) (protein, UniProt Q8BZA9 1-269)
chain: MPRFALTVIRHGETRLNKEKIIQGQGVDAPLSETGFRQAAAAGQFLSNVQFTHAFSSDLTRTKQTIHGILEKSRFCKDMAVKYDSRLRERMYGVAEGKPLSELRAMAKAAGEECPMFTPPGGETVEQVKMRGKDFFDFICQLILGKAGQRESVLPGAPGSGLESSLAEVFPVGKHGSLGANPKGGTLGLAASILVVSHGAYMRSLFGYFLSDLRCSLPGARDKLELSSITPNTGISVFIIDCEEARQPSIQCVCMNLQEHLNGVTEKQH
What does the source list for B1?
binding [1]: binds; binding [2]: binds; binding [3]: binds; binding [4]: no binding; binding [5]: no binding
